Laboratory results from PubChem BioAssay (NCATS).
Inconclusive results, whose numbers are uncertain, are shown with a selection of clear calls. For some assays here: A potency beside an inconclusive call is a rough fit, not a confirmed value. For some assays here: A note “side channel” means that the fit belongs to a control or component signal, not to the main read-out. Active and inactive are the calls of the source. Unless noted, calls come from the whole dose curve; as a rule, active = well fitted curve in the direction sought with a large enough effect; inconclusive = small, poorly fitted or top-dose-only effect, or another doubt; inactive = no such curve, though single readings can be large; an effect the other way counts as inactive or inconclusive.

Legend:
[1] = qHTS of pediatric cancer cell lines to identify multiple opportunities for drug repurposing: Primary screen for A673 cells (AID 1347092); conditions: A673 Ewing sarcoma viability, CellTiter-Glo ATP luminescence, 48 h; activity change, negative = cytotoxic: at 46 µM (top of the series); note: potency is the fitted concentration of half-maximal effect; nearly all actives have a fitted effect of over 45% in size
In short: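 Luminescence from CellTiter-Glo, taken after 15 min at room temperature, served as the proxy for metabolically active cells following 48 h treatment. Both potency and efficacy were taken from curves fitted to the titration data.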

[2] = qHTS of pediatric cancer cell lines to identify multiple opportunities for drug repurposing: Primary screen for SK-N-MC cells (AID 1347093); conditions: SK-N-MC viability, CellTiter-Glo luminescence, 48 h; activity change, negative = cytotoxic: at 46 µM (top of the series); note: potency is the fitted concentration of half-maximal effect
In short: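 Metabolically active cells were quantified by ATP-dependent luminescence (CellTiter-Glo, 15 min at room temperature) following 48 h treatment. Cells had been plated at 500-1,000 per well and settled for 5 h beforehand.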

[3] = qHTS of pediatric cancer cell lines to identify multiple opportunities for drug repurposing: Primary screen for BT-37 cells (AID 1347094); note: potency is the fitted concentration of half-maximal effect
In short: (§1)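 CRCs from 8- or 11-point titrations (lowest final 0.59 nM NPC, 0.78 nM MIPE). Cell viability: CellTiter-Glo after 48 h incubation, 15 min room-temperature development, luminescence imaging.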

[4] = qHTS of pediatric cancer cell lines to identify multiple opportunities for drug repurposing: Primary screen for U-2 OS cells (AID 1347096);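 note: plate controls were DMSO wells for no effect and bortezomib positive control wells for full effect; nearly all actives have a fitted effect of over 50% in size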
In short: (§2)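 Cells (500-1,000/well) in growth media were settled 5 h at 37 degrees C, then given compounds for 48 h. Viability was read as CellTiter-Glo luminescence. Primary runs used MIPE at 11 points (0.78 nM-46 µM) and NPC at 8 points (0.59 nM-46 µM); follow-ups used 11 points.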

[5] = qHTS of pediatric cancer cell lines to identify multiple opportunities for drug repurposing: Primary screen for Saos-2 cells (AID 1347097); note: potency is the fitted concentration of half-maximal effect; nearly all actives have a fitted effect of over 40% in size
In short: as §1

[6] = qHTS of pediatric cancer cell lines to identify multiple opportunities for drug repurposing: Primary screen for OHS-50 cells (AID 1347103); note: potency is the fitted concentration of half-maximal effect; nearly all actives have a fitted effect of over 40% in size
In short: (§3)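 Cells (500-1,000/well) rested 5 h, then received compounds for 48 h; metabolically active cells were measured by CellTiter-Glo luminescence. Final concentrations spanned up to 46 µM (MIPE, 11-point) or 0.59 nM-46 µM (NPC, 8-point) in primary screens, 11-point in follow-ups.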

[7] = qHTS of pediatric cancer cell lines to identify multiple opportunities for drug repurposing: Primary screen for RD cells (AID 1347104); conditions: RD rhabdomyosarcoma viability, CellTiter-Glo luminescence, 48 h; activity change, negative = cytotoxic: at 46 µM (top of the series); note: potency is the fitted concentration of half-maximal effect; nearly all actives have a fitted effect of over 55% in size
In short: as §1

[8] = target: Cytochrome P450 2D6 (Homo sapiens) (UniProt P10635); assay: Cytochrome P450 family 2 subfamily D member 6 (CYP2D6) small molecule antagonists: luciferase biochemical (cell-free) qHTS assay (AID 1645840; active = well fitted curve in the direction sought with a large enough effect in the repeat runs; inconclusive = weak or mixed curves; inactive = no such curve, though single readings can be large; an effect the other way counts as inactive or inconclusive; note: % is set by controls: 0 for no effect and ±100 for the full control effect; nearly all actives have a fitted effect of over 55% in size)
Sequence of UniProt P10635 (P10635 whole entry, looked up): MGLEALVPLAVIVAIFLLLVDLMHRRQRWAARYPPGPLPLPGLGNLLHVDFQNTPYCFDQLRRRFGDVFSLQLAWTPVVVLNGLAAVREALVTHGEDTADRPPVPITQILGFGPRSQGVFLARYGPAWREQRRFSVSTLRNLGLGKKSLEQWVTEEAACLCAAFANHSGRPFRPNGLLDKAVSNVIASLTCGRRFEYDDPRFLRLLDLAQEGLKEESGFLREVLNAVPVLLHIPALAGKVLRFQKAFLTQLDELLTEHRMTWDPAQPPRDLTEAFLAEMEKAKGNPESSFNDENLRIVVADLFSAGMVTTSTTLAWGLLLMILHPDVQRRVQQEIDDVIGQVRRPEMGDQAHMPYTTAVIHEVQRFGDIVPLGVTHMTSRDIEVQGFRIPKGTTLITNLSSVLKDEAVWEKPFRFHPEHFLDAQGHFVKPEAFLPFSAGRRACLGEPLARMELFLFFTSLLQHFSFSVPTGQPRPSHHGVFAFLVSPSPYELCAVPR
In short: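 P450-Glo CYP2D6 system: proluciferin substrate converted by enzyme to luciferin, read by luminescence proportional to activity. Enzyme-substrate mix with compound 10 min at room temperature, then NADPH regeneration 1 h before detection reagent.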

[9] = target: Cytochrome P450 2C9 (Homo sapiens) (UniProt P11712); assay: Cytochrome P450 family 2 subfamily C member 9 (CYP2C9) small molecule antagonists: luciferase biochemical (cell-free) qHTS assay (AID 1645842; active = well fitted curve in the direction sought with a large enough effect in the repeat runs; inconclusive = weak or mixed curves; inactive = no such curve, though single readings can be large; an effect the other way counts as inactive or inconclusive; note: % is set by controls: 0 for no effect and ±100 for the full control effect; nearly all actives have a fitted effect of over 55% in size)
Sequence of UniProt P11712 (P11712 whole entry, looked up): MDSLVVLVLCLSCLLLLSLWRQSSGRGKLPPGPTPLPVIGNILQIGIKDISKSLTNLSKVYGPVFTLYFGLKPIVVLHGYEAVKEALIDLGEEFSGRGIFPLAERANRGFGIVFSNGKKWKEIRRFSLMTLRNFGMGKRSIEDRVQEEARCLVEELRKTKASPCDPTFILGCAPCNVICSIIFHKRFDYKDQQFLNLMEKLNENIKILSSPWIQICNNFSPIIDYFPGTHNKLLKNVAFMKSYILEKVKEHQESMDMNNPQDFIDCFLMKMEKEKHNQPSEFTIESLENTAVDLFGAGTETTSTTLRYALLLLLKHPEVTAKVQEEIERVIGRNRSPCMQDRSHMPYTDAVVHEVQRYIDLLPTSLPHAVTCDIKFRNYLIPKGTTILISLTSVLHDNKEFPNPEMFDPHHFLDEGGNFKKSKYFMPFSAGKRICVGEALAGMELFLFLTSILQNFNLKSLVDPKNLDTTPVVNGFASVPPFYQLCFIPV
In short: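 P450-Glo CYP2C9 system: proluciferin substrate with enzyme in mix containing 0.4% BSA, 10 min at room temperature, then NADPH regeneration solution added and incubated 1 h at 37C. Detection reagent stopped reaction; luminescence read after 20 min as RLU.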

[10] = Primary qHTS for inhibitors of nuclear receptor binding SET domain protein 2 (NSD2) in an isogenic RCH-ACV NSD2 p.E1099K mutant (9B) (AID 1645876); note: nearly all actives have a fitted effect of over 70% in size; note: potency is the fitted concentration of half-maximal effect
[11] = Primary qHTS for inhibitors of nuclear receptor binding SET domain protein 2 (NSD2) in an RCH-ACV wild type WT cells (2C) (AID 1645877); conditions: activity change, negative = cell killing: at 44.9 µM (top of the series) unless noted; note: potency is the fitted concentration of half-maximal effect; nearly all actives have a fitted effect of over 70% in size
HEK293 = assay: Cytotoxic Profiling of Annotated Libraries Using Quantitative High-Throughput Screening (AID 1296008); conditions: Five cell lines viability, CellTiter-Glo ATP luminescence, 48-72 h; max response: stronger effect = lower value; note: nearly all actives have a fitted effect of over 60% in size; note: potency is the fitted concentration of half-maximal effect; for max response: % is set by controls: 0 for no effect and ±100 for the full control effect
In short: (§4)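 Compounds were pin-transferred onto cells and incubated 48 or 72 hr at 37 degree Celsius, 95% humidity. CellTiter-Glo was added, plates sat 10 min at room temperature, then ATP-coupled luminescence was imaged as the viability read-out.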

OV90 = assay: Primary qHTS to identify gynecologic anti-cancer compounds using libraries of approved drugs and bioactive compounds (AID 1345084); conditions: Gynecologic cancer cell panel viability, ATPlite luminescence, 48 h; series mostly up to 57.5 µM; note: nearly all actives have a fitted effect of over 55% in size; note: potency is the fitted concentration of half-maximal effect
In short: (§5)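 Five-concentration response, 48 h; readout is ATP-driven luciferase luminescence.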

SKOV3 = assay: as above; conditions: Gynecologic cancer cell panel viability, ATPlite luminescence, 48 h; series mostly up to 57.5 µM
In short: as §5

Tov-21-G = assay: as above; conditions: Gynecologic cancer cell panel viability, ATPlite luminescence, 48 h; activity change, negative = cytotoxicity: at 57.5 µM (top of the series) unless noted
In short: as §5

MCC-13 = assay: qHTS assay to identify novel small-molecules to repurpose for Merkel cell carcinoma treatment (AID 1296009); conditions: MCC and control cell lines, CellTiter-Glo viability, 72 h; series mostly up to 46 µM; note: nearly all actives have a fitted effect of over 60% in size; note: potency is the fitted concentration of half-maximal effect; for activity change, negative = cytotoxicity: % is set by controls: 0 for no effect and ±100 for the full control effect
In short: (§6)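 Luminescence from CellTiter-Glo, read 10 min after addition at room temperature, reported viability following a 72 hr, 37 degree celsius treatment with NPC or MIPE compounds in titration; values normalized to plate controls.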

MKL-1 = assay: as above; conditions: MCC and control cell lines, CellTiter-Glo viability, 72 h; activity change, negative = cytotoxicity: at 46 µM (top of the series)
In short: as §6

CRL-7250 = normal cell line; assay: Cytotoxic Profiling of Annotated Libraries Using Quantitative High-Throughput Screening (AID 1296008); conditions: Five cell lines viability, CellTiter-Glo ATP luminescence, 48-72 h; max response: stronger effect = lower value; note: nearly all actives have a fitted effect of over 60% in size; note: potency is the fitted concentration of half-maximal effect
In short: as §4

[12] = Cell Viability - NIH 3T3 (AID 541); conditions: NIH 3T3 cell viability, qHTS; activity change, negative = cytotoxicity: at 92.2 µM (top of the series);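 note: cells exposed to compound for 40 hours; plate controls were DMSO alone for no effect and tamoxifen positive control for full effect; nearly all actives have a fitted effect of over 25% in size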
In short: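 In this cytotoxicity screen, acute toxicity is scored as an ATP drop measured by CellTiter-Glo in NIH 3T3 fibroblasts following a 40 hr, 37 °C incubation with compound.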

[13] = Cell Viability - LYMP1-003 - Assay at 40 hr (AID 964)
In short: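 Acute toxicity is scored as a concentration-dependent loss of intracellular ATP in LYMP1-003 cells (2500/well, complete medium) after 40 hr at 37 C, measured by CellTiter-Glo luminescence; AC50 values derive from standard Hill modelling.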

[14] = Cell Viability - LYMP2-009 (AID 968)
[15] = target: Androgen receptor (Homo sapiens) (UniProt P10275); assay: qHTS assay for small molecule agonists of androgen receptor signaling (AID 588515; active = well fitted curve in the direction sought with a large enough effect in the signal ratio, with a control signal flat; inconclusive = small, poorly fitted or top-dose-only effect, or effect the other way, or a change in a side signal; inactive = no such curve, though single readings can be large or run the other way; the % refers to the signal ratio; note: potency is the fitted concentration of half-maximal effect); conditions: AR-UAS-bla HEK293, beta-lactamase ratio, agonist 16 h; activation: stronger effect = higher value
Sequence of UniProt P10275 (P10275 whole entry, looked up): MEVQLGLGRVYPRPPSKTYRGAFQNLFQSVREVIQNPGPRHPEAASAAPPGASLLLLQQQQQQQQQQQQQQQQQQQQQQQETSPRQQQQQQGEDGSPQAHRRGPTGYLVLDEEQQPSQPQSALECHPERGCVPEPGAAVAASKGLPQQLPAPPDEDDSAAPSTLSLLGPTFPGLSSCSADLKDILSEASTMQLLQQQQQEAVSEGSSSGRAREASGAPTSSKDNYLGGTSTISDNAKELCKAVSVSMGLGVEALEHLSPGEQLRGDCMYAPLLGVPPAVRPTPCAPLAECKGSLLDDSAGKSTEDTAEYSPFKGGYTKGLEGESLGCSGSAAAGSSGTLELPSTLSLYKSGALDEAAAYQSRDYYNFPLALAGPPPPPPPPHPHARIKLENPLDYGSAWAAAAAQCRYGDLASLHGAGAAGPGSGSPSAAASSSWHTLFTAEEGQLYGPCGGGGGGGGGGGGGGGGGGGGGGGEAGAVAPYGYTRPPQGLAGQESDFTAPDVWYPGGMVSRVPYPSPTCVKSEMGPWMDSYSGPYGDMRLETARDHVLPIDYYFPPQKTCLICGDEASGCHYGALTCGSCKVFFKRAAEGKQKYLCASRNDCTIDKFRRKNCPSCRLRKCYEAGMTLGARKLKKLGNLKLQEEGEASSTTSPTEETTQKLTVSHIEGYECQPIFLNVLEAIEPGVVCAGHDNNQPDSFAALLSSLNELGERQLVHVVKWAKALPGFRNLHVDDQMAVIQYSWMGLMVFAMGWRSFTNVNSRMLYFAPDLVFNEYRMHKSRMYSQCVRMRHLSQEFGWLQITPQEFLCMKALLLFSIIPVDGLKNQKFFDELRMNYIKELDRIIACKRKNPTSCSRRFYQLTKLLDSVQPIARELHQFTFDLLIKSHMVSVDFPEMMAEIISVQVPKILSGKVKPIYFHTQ
In short: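 Stimulation of an AR-responsive β-lactamase reporter in GripTite HEK293 cells was measured after 16 h compound exposure at 37 °C, via CCF4 fluorescence after 2 h RT. EC50 from Hill fits, normalized to R1881 at 30 nM.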

[16] = target: Peroxisome proliferator-activated receptor delta (Homo sapiens) (UniProt Q03181); assay: qHTS assay for small molecule antagonists of peroxisome proliferator-activated receptor delta signaling (AID 588535; active = well fitted inhibition curve with a large enough effect in the signal ratio, with a control signal flat, not every such curve was filed as active; inconclusive = small, poorly fitted or top-dose-only effect, or effect the other way, or a change in a side signal; inactive = no such curve, though single readings can be large or run the other way; the % refers to the signal ratio); conditions: HEK293T PPARd-UAS-bla, beta-lactamase FRET ratio, 18 h; activity change, negative = inhibition: at 76.7 µM (top of the series)
Sequence of UniProt Q03181 (Q03181 whole entry, looked up): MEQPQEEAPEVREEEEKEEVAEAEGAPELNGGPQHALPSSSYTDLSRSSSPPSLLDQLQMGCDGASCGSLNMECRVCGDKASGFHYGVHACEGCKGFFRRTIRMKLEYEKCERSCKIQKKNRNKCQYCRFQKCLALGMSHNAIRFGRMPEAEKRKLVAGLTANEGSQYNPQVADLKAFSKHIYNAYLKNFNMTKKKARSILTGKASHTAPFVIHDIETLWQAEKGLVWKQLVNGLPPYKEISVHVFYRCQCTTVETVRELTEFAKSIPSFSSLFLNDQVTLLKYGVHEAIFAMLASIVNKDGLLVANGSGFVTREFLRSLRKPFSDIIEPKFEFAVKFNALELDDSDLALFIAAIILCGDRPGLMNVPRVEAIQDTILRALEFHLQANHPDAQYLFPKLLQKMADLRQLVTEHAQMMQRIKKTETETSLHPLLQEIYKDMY
In short: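 Compounds tested in titration on PPAR-delta-UAS-bla HEK293T cells grown in charcoal/dextran-stripped serum (2%); beta-lactamase activity read via CCF4 emission at 460 and 530 nm.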

[17] = qHTS assay for small molecule agonists of the antioxidant response element (ARE) signaling pathway (AID 651741; active = well fitted activation curve with a large enough effect in the signal ratio; inconclusive = small, poorly fitted or top-dose-only effect, or effect the other way, or a change in a side signal; the % refers to the signal ratio; note: % of control where 0% means no effect); conditions: HepG2 ARE-bla reporter, beta-lactamase FRET ratio, 16 h; activation: at 96 µM (top of the series)
In short: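 Beta-lactamase reporter expression driven by the antioxidant response element in HepG2 cells was detected by fluorescence with LiveBLAzer B/G FRET substrate (2 h, room temperature) following 16 h compound treatment at 37 C.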

[18] = qHTS of pediatric cancer cell lines to identify multiple opportunities for drug repurposing: Primary screen for NB-EBc1 cells (AID 1347095); note: potency is the fitted concentration of half-maximal effect
In short: as §1

[19] = qHTS of pediatric cancer cell lines to identify multiple opportunities for drug repurposing: Primary screen for SK-N-SH cells (AID 1347098); note: potency is the fitted concentration of half-maximal effect; nearly all actives have a fitted effect of over 65% in size
In short: as §3

[20] = qHTS of pediatric cancer cell lines to identify multiple opportunities for drug repurposing: Primary screen for NB1643 cells (AID 1347099); note: potency is the fitted concentration of half-maximal effect; nearly all actives have a fitted effect of over 50% in size
In short: as §1

[21] = qHTS of pediatric cancer cell lines to identify multiple opportunities for drug repurposing: Primary screen for Rh18 cells (AID 1347102); note: potency is the fitted concentration of half-maximal effect; nearly all actives have a fitted effect of over 65% in size
In short: as §2

[22] = qHTS of pediatric cancer cell lines to identify multiple opportunities for drug repurposing: Primary screen for Rh41 cells (AID 1347108); note: potency is the fitted concentration of half-maximal effect; nearly all actives have a fitted effect of over 70% in size
In short: as §1

[23] = Cell Viability qHTS for small molecule stabilizers of the endoplasmic reticulum resident proteome (AID 1508629); conditions: cell viability counter-screen, 100 nM thapsigargin for final 4 h;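 note: human SH-SY5Y neuroblastoma cells carrying the GLuc-SERCaMP reporter; compound exposure about 46 h in total before the viability read; % is set by controls: 0 for no effect and ±100 for the full control effect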
[24] = Primary qHTS for small molecule stabilizers of the endoplasmic reticulum resident proteome: Secreted ER Calcium Modulated Protein (SERCaMP) assay (AID 1508630); conditions: SH-SY5Y GLuc-SERCaMP (Gaussia luciferase released on ER calcium loss) secretion, thapsigargin, luminescence; activity change, negative = inhibition: at 38.4 µM (top of the series) unless noted; note: potency is the fitted concentration of half-maximal effect
In short: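 The SH-SY5Y reporter protocol was run at 3 concentrations up to 38.3 uM (primary) or 11 concentrations (follow-up): 16 h compound, 100 nM thapsigargin for 4 h, then extracellular luciferase luminescence.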

[25] = A High-Content qHTS Against Drug Library for the Identification of Small Molecules that Inhibit DYT1 Early Onset Primary Dystonia-Associated Cell Pathology (AID 1645839; calls by dose curve)
In short: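 Induced EGFP-delE TorsinA cells are imaged after 48 h of compound treatment. Punctate fusion-protein distribution gives the %pathology value, while nuclei counts flag toxicity. Wild-type EGFP-hTOR1A cells define the normal pattern.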

Tov112D = assay: Primary qHTS to identify gynecologic anti-cancer compounds using libraries of approved drugs and bioactive compounds (AID 1345084); conditions: Gynecologic cancer cell panel viability, ATPlite luminescence, 48 h; series mostly up to 57.5 µM; note: nearly all actives have a fitted effect of over 55% in size; note: potency is the fitted concentration of half-maximal effect
In short: as §5

[26] = Drug repurposing screens with cells derived from glioblastoma tumor samples (AID 1345199); conditions: GBM patient neurospheres viability, ATP luminescence, 48 h; Potency: tumour line A unless noted; activity, negative = cell killing: at 46 µM (top of the series), tumour line A unless noted; note: nearly all actives have a fitted effect of over 40% in size; note: potency is the fitted concentration of half-maximal effect
In short: (§7)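 Primary testing used CD133+ neurospheres from four GBM patients, seven concentrations, 48 h exposure and ATP-based viability; confirmation added three slower-growing patient lines.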

astro = assay: as above; conditions: viability, ATP luminescence, 48 h; activity, negative = cell killing: at 45.9 µM (top of the series)
In short: as §7

MKL-2 = assay: qHTS assay to identify novel small-molecules to repurpose for Merkel cell carcinoma treatment (AID 1296009); conditions: MCC and control cell lines, CellTiter-Glo viability, 72 h; activity change, negative = cytotoxicity: at 46 µM (top of the series); note: nearly all actives have a fitted effect of over 60% in size; note: potency is the fitted concentration of half-maximal effect; for activity change, negative = cytotoxicity: % is set by controls: 0 for no effect and ±100 for the full control effect
In short: as §6
Tags give direction and shape of the fitted curve.

C[C@H]1[C@H]2CC[C@H]3[C@@H]4CC=C5C[C@@H](N(C)C)CC[C@]5(C)[C@H]4CC[C@]23CN1C
inactive: Potency [4] | Potency [8] | Potency [9] | Potency (MCC-13)
active: Potency (OV90) 15.8 µM
inconclusive: Potency [1] 33.5 µM [cytotoxic, partial curve, poor fit] | Potency [2] 21.1 µM [cytotoxic, partial curve, poor fit] | Potency [3] 13.8 µM [cytotoxic, partial curve, poor fit] | Potency [5] 47.3 µM [cytotoxic, partial curve, poor fit] | Potency [6] 24.6 µM [cytotoxic, partial curve, poor fit] | Potency [7] 21.1 µM [cytotoxic, partial curve, poor fit] | Potency [10] 33.5 µM [inhibitor, single point] | Potency [11] 33.5 µM [inhibitor, single point] | Potency (HEK293) 29.9 µM [inhibitor, single point] | Potency (SKOV3) 25.1 µM [cytotoxic, partial curve, poor fit] | Potency (Tov-21-G) 31.6 µM [cytotoxic, single point] | activity change, negative = cytotoxicity (MKL-1) -30.5% [inhibitor]

CSC(=O)OCC1=C[C@@H]2OC(=O)C3=CO[C@@H](O[C@@H]4O[C@H](CO)[C@@H](O)[C@H](O)[C@H]4O)[C@H]1[C@@H]32
inactive: Potency [10] | max response (CRL-7250) -1.2%

O=C(NO)c1ccccc1
active: Potency [10] 36.6 µM
inconclusive: activity change, negative = cytotoxicity [12] -40.6% | Potency [15] 28.2 µM [side channel, rising, partial curve] | activity change, negative = inhibition [16] -47.8% | activation [17] 13.1% | Potency [1] 36.6 µM [cytotoxic, partial curve] | Potency [2] 18.4 µM [cytotoxic, partial curve, poor fit] | Potency [3] 84.9 µM [cytotoxic, partial curve, poor fit] | Potency [18] 20.6 µM [cytotoxic, partial curve] | Potency [5] 25.9 µM [cytotoxic, partial curve] | Potency [19] 18.9 µM [cytotoxic, partial curve, poor fit] | Potency [20] 25.9 µM [cytotoxic, partial curve, poor fit] | Potency [21] 36.6 µM [cytotoxic, partial curve, poor fit] | Potency [7] 41.1 µM [cytotoxic, partial curve, poor fit] | Potency [22] 23.1 µM [cytotoxic, partial curve, poor fit] | Potency [24] 31.6 µM [inhibitor, partial curve, poor fit] | Potency (HEK293) 65.1 µM [inhibitor, partial curve, poor fit] | Potency [26] 63.1 µM [inhibitor, partial curve] | Potency (MKL-2) 46.1 µM [inhibitor, single point]
inactive: Potency [13] | Potency [14] | max response [23] 2.69% | Potency [25] | Potency [8] | Potency (Tov-21-G) | Potency (Tov112D) | Potency (astro) | Potency (MKL-1)
